Experimental data: PubChem BioAssay AID360 (National Center for Advancing Translational Sciences (NCATS), 2006)
The whole screen tested about 48,000 compounds, of which about 550 (1.1%) were called active. Not shown: some 4% with an inconclusive outcome. Cut-off read from the data, not from the text of the source: active = potency below about 15 µM; inconclusive = mostly about 16 µM to 33 µM; inactive = weaker than that. This is one part of the list.

target: Lysosomal acid glucosylceramidase (Homo sapiens) (UniProt P04062); assay: Glucocerebrosidase; conditions: purified enzyme, resorufin glucoside fluorescence (screen aimed at inhibitors), 20 min; series mostly up to 77 µM;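 note: the screen sought inhibitors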
UniProt P04062, sequence (P04062 whole entry, looked up): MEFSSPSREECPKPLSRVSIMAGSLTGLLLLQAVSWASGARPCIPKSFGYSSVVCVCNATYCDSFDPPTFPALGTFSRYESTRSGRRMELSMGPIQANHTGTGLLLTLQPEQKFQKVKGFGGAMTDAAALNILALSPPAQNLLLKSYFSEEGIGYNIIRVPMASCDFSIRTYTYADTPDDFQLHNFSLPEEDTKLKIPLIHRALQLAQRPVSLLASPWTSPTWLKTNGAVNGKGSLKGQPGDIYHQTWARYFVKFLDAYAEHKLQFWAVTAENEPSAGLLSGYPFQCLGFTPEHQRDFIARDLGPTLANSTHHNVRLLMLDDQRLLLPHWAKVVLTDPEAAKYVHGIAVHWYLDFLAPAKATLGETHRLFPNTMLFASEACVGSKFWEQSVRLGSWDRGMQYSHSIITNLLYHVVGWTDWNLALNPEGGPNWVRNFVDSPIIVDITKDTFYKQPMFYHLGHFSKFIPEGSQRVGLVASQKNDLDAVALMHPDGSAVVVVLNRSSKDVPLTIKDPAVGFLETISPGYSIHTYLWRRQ
Source text: NCGC Assay Overview: Beta-glucocerebrosidase catalyzes the hydrolysis of beta-glucocerebroside to glucose and ceramide. The inherited deficiency of beta-glucocerebrosidase results in Gaucher disease, which is characterized by a wide variety of symptoms including hepatosplenomegaly, anemia, thrombocytopenia, bony lesions and bone marrow infiltration with characteristic storage cells, known as Gaucher cells. There are also forms of the disorder affecting the central nervous system. Patients with the same genotypes can manifest with diverse clinical presentations and it is believed that improper folding and trafficking of beta-glucocerbrosidase may contribute to the phenotypes observed. Low molecular weight molecules, acting as chaperones, may potentially restore trafficking of misfolded beta-glucocerebrosidase from the endoplasmic reticulum to the lysosomes, thereby enhancing functional lysosomal beta-glucocerebrosidase activity. Using normal beta-glucocerebrosidase, an assay was developed to screen for small molecule inhibitors that could potentially act as molecular chaperones on the mutant forms [developed with NIH investigator Dr. Ellen Sidransky's laboratory]. Two pro-fluorescent substrates were chosen for two screens against a small molecule library. One beta-glucocerebrosidase assay used Resorufin beta-D-Glucopyranoside (Marker Gene Technology Inc.), generating a red fluorescent product. The second assay used Fluorescein di-beta-D-Glucopyranoside, generating a blue fluorescent product. […] The IC50 values of Conduritol B Epoxide, a known glucocerebrosidase inhibitor, were determined to be 87.5 uM and 117 uM, respectively. The use of two difference pro-fluorescent substrates in the screens helped to eliminate false positives. All compounds were screened in a titration series resulting in AC50s (e.g., IC50s or EC50s).
NCGC Assay Protocol Summary: Both enzyme and substrate were diluted in buffer composed of 50mM citric acid/KH2PO4, 10mM sodium taurocholate and 0.01% tween-20 at pH 5.9. The final concentration of the enzyme was 0.2 nM in both assays. The compound library was titrated in 7 to 15 concentrations for the primary screens with a final concentration ranging from 0.6 nM to 50 uM. This particular assay protocol is for the "red" substrate, and it was performed in 1536-well plate format as follows: Red fluorescence substrate assay: 2 uL enzyme 23 nL compound 1 uL substrate (final concentration of 30 uM) Incubate at room temperature (RT) for 20 minutes Read the plate in Viewlux plate reader (Ex=548(7) and Em=600(10)).
Potency is the fitted concentration of half-maximal effect.

Potency, inactive:
Cc1ccc(S(=O)(=O)N(CCO)Cc2cc3ccc(C)c(C)c3[nH]c2=O)cc1 > 76.9 µM
CC(Oc1ccc(NC(=O)c2ccco2)cc1)C(=O)N1c2ccccc2CC1C (stereo unspecified) > 76.9 µM
Cc1cc(NC(=O)Cn2nc3c(cc2=O)CCCC3)ccc1Br > 76.9 µM
Cc1ccc(NC(=O)CN2C(=O)C(C)Oc3ccccc32)nc1 (stereo unspecified) > 76.9 µM
COc1ccc(CN(CC(=O)NCC2CCCO2)C(=O)CCC(=O)Nc2cc(C)ccn2)cc1 (stereo unspecified) > 76.9 µM
NC(=O)Nn1c(CCC(=O)O)ccc1-c1ccc(Br)cc1 > 76.9 µM
COc1cc(OC)cc(OCC(O)Cn2ccnc2)c1 (stereo unspecified) > 76.9 µM
CC(=O)Nc1nonc1NC(=O)CSc1ccccn1 > 76.9 µM
Cc1ccc(OCc2nnc(SCC(=O)Nc3cc(C)on3)n2C)cc1 > 76.9 µM
Cc1noc(C)c1CN1C(=O)NC(Cc2ccccc2)(Cc2ccccc2)C1=O > 76.9 µM
COc1ccc(OC)c(S(=O)(=O)N2CCC(C(=O)Nc3ccc(C)c(C)c3)CC2)c1 > 76.9 µM
CCC(=O)N1CCCc2cc(S(=O)(=O)N3CCCc4ccccc43)ccc21 > 76.9 µM
Cn1c(Cc2ccccc2)nnc1SCC(=O)Nc1ccccc1N1CCOCC1 > 76.9 µM
COc1cccc(NC(=O)CCS(=O)(=O)c2cccs2)c1 > 76.9 µM
Cc1cccc(C)c1NC(=O)CCCSc1nnc(-c2ccco2)n1-c1ccccc1 > 76.9 µM
Cc1cc(C)n(-c2nc(NCc3cccnc3)c3c4c(sc3n2)COC(C)(C)C4)n1 > 76.9 µM
CCOc1ccccc1C(=O)Nc1nccs1 > 76.9 µM
COCCn1c(=O)[nH]c2cc(C(=O)N3CCN(Cc4ccc5c(c4)OCO5)CC3)ccc2c1=O > 76.9 µM
CCOC(=O)c1c(C)c(C(=O)NCCCN2CCCC2=O)c(C)n1CC > 76.9 µM
CCN(CC)C(=O)c1cn(C)c2ccc(S(=O)(=O)N(CC)CC)cc2c1=O > 76.9 µM
Cn1c(Cc2ccccc2)nnc1SCC(=O)N1CCOCC1 > 76.9 µM
O=S(=O)(c1ccc(Br)s1)n1cccn1 > 76.9 µM
O=c1c2ccccc2nc(SCc2ccccc2)n1Cc1ccco1 > 76.9 µM
CC(C(=O)NCC1(c2ccccc2)CCCC1)N1CCOCC1 (stereo unspecified) > 76.9 µM
OC(COc1ccccc1)CSc1ncn[nH]1 (stereo unspecified) > 76.9 µM
Cc1cc(C)c(S(=O)(=O)N(CC(=O)N2CCOCC2)C2CCCCC2)c(C)c1 > 76.9 µM
Cc1nc(NC2=NCN(Cc3ccccc3)CN2)nc2ccccc12 > 76.9 µM
Cc1c(C(=O)NCc2ccc3c(c2)OCO3)oc2ccc(S(=O)(=O)N3CCCCCC3)cc12 > 76.9 µM
COc1ccc(CCN(CC(=O)NC2CCCC2)C(=O)CCC(=O)Nc2cc(C)on2)cc1OC > 76.9 µM
COc1ccc(F)cc1S(=O)(=O)NC(Cc1ccccc1)C(N)=O (stereo unspecified) > 76.9 µM
CCOc1cc(N2CCOCC2)c(OCC)cc1NC(=O)Cc1cn2ccsc2n1 > 76.9 µM
CC(C)(C)NC(=O)C(c1cccs1)N(CC1CCCO1)C(=O)Cn1nnc(-c2cccs2)n1 (stereo unspecified) > 76.9 µM
CCOC(=O)c1sc(NC(=O)CSc2nnc(-c3ccco3)n2CC)c(C(=O)OCC)c1C > 76.9 µM
Cc1nc(COC(=O)c2ccc(S(=O)(=O)N3CCCC3)cc2)cs1 > 76.9 µM
O=S(=O)(NCC1CC1)c1cccc(S(=O)(=O)N2CCCC2)c1 > 76.9 µM
CC(C)OC(=O)CSc1nnc(-c2cccnc2)n1N > 76.9 µM
COc1ccc(N2CCN(C3CC(=O)N(c4ccc5c(c4)OCCO5)C3=O)CC2)cc1 (stereo unspecified) > 76.9 µM
Cc1nn(-c2ccccc2)c2c1P(=O)(O)/C(=C1\N(C)c3ccccc3C1(C)C)C=N2 > 76.9 µM
Cc1nc2ccccc2c(=O)n1NS(C)(=O)=O > 76.9 µM
CC(=O)Nc1ccc(NC(=O)c2ccccc2N(C)S(C)(=O)=O)cc1 > 76.9 µM
c1csc(CNc2ncnc3sccc23)c1 > 76.9 µM
c1ccc(Nc2nc3ccccc3[nH]2)nc1 > 76.9 µM
CCOC(=O)C1=C(CNCc2ccccc2Cl)NC(=O)NC1c1ccc2c(c1)OCO2 (stereo unspecified)
N#Cc1c(-c2ccccc2)nc(N2CCOCC2)[nH]c1=O > 76.9 µM
Cn1c(=O)[nH]c(=O)c2c1nc(Br)n2CCCSc1nc2ccccc2o1 > 76.9 µM
CCNc1nc(OC)nc(SCC(N)=O)n1 > 76.9 µM
O=C(CC1CC2CCC1C2)NCc1cccs1 (stereo unspecified) > 76.9 µM
Cc1ccc(C(=O)NC2CCS(=O)(=O)C2)cc1S(=O)(=O)N1CCCCC1 (stereo unspecified) > 76.9 µM
c1ccc(OCCCn2nnc(-c3ccncc3)n2)cc1 > 76.9 µM
CCc1ccccc1NC(=O)CSc1nnc([C@@H](NC(=O)OC(C)(C)C)C(C)C)o1 > 76.9 µM
COC(=O)c1ccsc1NC(=O)CSc1nnnn1Cc1ccccc1 > 76.9 µM
CCOc1cc2c3c(c1)C1(OCCO1)C(=O)N3C(C)(C)CC2C (stereo unspecified) > 76.9 µM
CC(C)n1c(SCC(=O)N2CCCc3ccccc32)nc2c1c(=O)n(C)c(=O)n2C > 76.9 µM
CN(C(=O)c1ccccn1)c1nnc(-c2cnccn2)s1 > 76.9 µM
O=C(CCNS(=O)(=O)c1ccc2c(c1)CCC(=O)N2)Nc1ccc2c(c1)OCCO2 > 76.9 µM
COc1ccc(CN(C(=O)CSc2nnc(-c3ccc(F)cc3)o2)c2ccc(F)cc2)cc1 > 76.9 µM
CCC(C)NC(=O)C1c2ccccc2C(=O)N1Cc1ccccc1OC (stereo unspecified) > 76.9 µM
CCn1c(SCc2cccc(C(=O)O)c2)nnc1-c1ccccc1 > 76.9 µM
CCOc1nc(OCC)nc(-n2cc(-c3ccccc3)nn2)n1 > 76.9 µM
Cc1nn2c(-n3ccnc3)c3c(nc2c1-c1ccccc1)CCC3 > 76.9 µM
CCOC(=O)Cc1csc(NC(=O)c2ccco2)n1 > 76.9 µM
CCCC(C)C1C(C#N)=C(N)Oc2cc(C)oc(=O)c21 (stereo unspecified) > 76.9 µM
CCOC(=O)N1CCN(C(=O)CSCC(=O)Nc2nc(-c3ccc(OC)cc3)cs2)CC1 > 76.9 µM
COc1ccccc1N(CC(=O)Nc1ccc2c(c1)OCCO2)S(C)(=O)=O > 76.9 µM
O=c1cc(N2CCN(c3ccccc3)CC2)[nH]c(=O)n1-c1ccccc1Cl > 76.9 µM
C=CCN(C(=O)Cn1c(C(=O)OC)cc2oc(C)cc21)c1ccccc1
O=c1[nH]c(SCC2CCCCO2)nc2ccccc12 (stereo unspecified) > 76.9 µM
OC(CN1CCOCC1)Cn1c(-c2cccc(Cl)c2)nc2ccccc21 (stereo unspecified) > 76.9 µM
CC(=O)Nc1ccc(NC(=O)c2cccc(C(=O)OC(C)C)n2)cc1 > 76.9 µM
COC(=O)c1cnn2c3c(c(C)nc12)CCCC3 > 76.9 µM
CCc1cc(C(=O)OC)c(NC(=O)CCC(=O)O)s1 > 76.9 µM
Cc1nnc(SCC(=O)N2CCN(Cc3ccccc3)CC2)s1 > 76.9 µM
Cc1ccc(C(C)n2cc(C(=O)NCc3cccnc3)nn2)cc1 (stereo unspecified) > 76.9 µM
C=CCn1c(SCC(=O)Nc2nc3ccccc3s2)nnc1-c1ccccc1O > 76.9 µM
CC(OC(=O)C1CCCO1)C(=O)NC1CCCC1 (stereo unspecified) > 76.9 µM
Cc1cc(C)nc(SC(C)C(=O)Nc2ccc(S(N)(=O)=O)cc2)n1 (stereo unspecified) > 76.9 µM
COc1ccc(CNC(=O)C(C)NC(=O)c2cc3ccccc3o2)cc1 (stereo unspecified) > 76.9 µM
CCCc1cc(=O)n2[nH]c(NCc3ccccc3Cl)nc2n1 > 76.9 µM
COC(=O)CCNc1ccc2c(c1)OCCO2 > 76.9 µM
Cc1nn(CC(=O)NCc2cccnc2)c(=O)c2ccccc12 > 76.9 µM
O=C1Nc2ccccc2C(O)(C(=O)NCc2ccco2)N1c1ccc(Cl)cc1 (stereo unspecified) > 76.9 µM
CCCOc1ccc(CN(CCO)CCO)cc1C(=O)OC > 76.9 µM
O=C1C(C=NCCCN2CCCC2=O)=C(O)c2ccccc21 > 76.9 µM
O=C(CSc1nnc(-c2ccccc2)o1)c1ccc2c(c1)OCCO2 > 76.9 µM
COc1ccc(OC)c(NC(=O)CSc2nnc(CNC(=O)COc3ccc(Cl)cc3)o2)c1 > 76.9 µM
CC(=O)Nc1c(O)n(C)c2ccccc12 > 76.9 µM
COCCCNC(=O)c1ccc2c(c1)OCO2 > 76.9 µM
COc1cc2cc(CN(Cc3cccnc3)C(=O)NCc3ccccc3)c(=O)[nH]c2cc1OC > 76.9 µM
O=C(CCC(=O)N1CCCC1)Nc1nnc(C2CCCCC2)s1 > 76.9 µM
Cn1c(NC(=O)c2ccco2)c(-c2ccccc2)c(=O)c2ccccc21 > 76.9 µM
O=C(O)C1CC=CCC1C(=O)Nc1ccccc1Cl (stereo unspecified) > 76.9 µM
